Measurements as given in PubChem BioAssay AID2675 (National Center for Advancing Translational Sciences (NCATS), 2010).
The whole screen tested about 280,000 compounds, of which about 100 (0.036%) were called active. Inconclusive means that the source gave no clear call. Such entries were picked first, then a sample of the others. Calls follow the shape of the dose curve; as a rule, active = well fitted inhibition curve with a large enough effect in the signal ratio, with a control signal flat (not every such curve was filed as active); inconclusive = small, poorly fitted or top-dose-only effect, or effect the other way, or a change in a side signal; inactive = no such curve, though single readings can be large or run the other way; the % refers to the signal ratio. Potencies beside an inconclusive call are fits to weak or partial responses and may not hold up. “Side channel” marks fits to a control or component signal instead of the main read-out.

Target: Muscleblind-like protein 1 (Homo sapiens) (UniProt Q9NR56)
UniProt Q9NR56, sequence (Q9NR56 whole entry, looked up): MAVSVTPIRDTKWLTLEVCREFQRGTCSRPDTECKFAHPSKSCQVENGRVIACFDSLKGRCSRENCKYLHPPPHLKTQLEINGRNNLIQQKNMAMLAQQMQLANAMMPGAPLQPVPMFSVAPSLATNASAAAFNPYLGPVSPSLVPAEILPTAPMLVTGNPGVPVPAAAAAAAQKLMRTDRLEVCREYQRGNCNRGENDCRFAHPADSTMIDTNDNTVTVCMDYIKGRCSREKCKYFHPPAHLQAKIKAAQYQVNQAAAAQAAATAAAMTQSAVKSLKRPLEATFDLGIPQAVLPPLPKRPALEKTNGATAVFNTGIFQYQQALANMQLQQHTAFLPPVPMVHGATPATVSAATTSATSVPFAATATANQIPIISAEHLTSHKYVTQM
Test: qHTS Assay for Inhibitors of MBNL1-poly(CUG) RNA binding
Conditions: TR-FRET MBNL1-His/biotin-(CUG)12 binding, 665/545 ratio; series mostly up to 57.5 µM
Method in brief: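 TR-FRET between His-tagged MBNL1 and biotin-(CUG)12 RNA, detected with Tb anti-His antibody (0.055 ng/ul) and streptavidin-XL665 (5 nM), 60 min at room temperature. Compounds titrated 92 nM to 58 uM; 665/545 nm ratio normalized to buffer and complex controls.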
Potency is read from the fitted curve at half-maximal effect; tags tell the direction and shape of the fitted curve or compound fluorescence and quenching.

SMILES	Potency
Cc1ccc(S(=O)(=O)c2nc(NCCN(C)C)sc2Cl)cc1	inactive
COc1cc(/C=N/NC(=O)c2ccccn2)cc2c1OCO2	inconclusive: 15.8 µM [quencher, side channel, partial curve]
CCOC(=O)c1nc(Nc2ccc(C)cc2)c2ccccc2n1	inconclusive: 31.6 µM [quencher, side channel, single point]
CCCOC(=O)c1ccc2c(c1)C(=O)N(c1ccccc1)C2=O	inconclusive: 3.16 µM [quencher, side channel, full curve]
COc1ccc(C2=NS(=O)(=O)N(C)C(C(=O)Nc3ccc(F)cc3F)=C2)cc1	inconclusive: 28.2 µM [quencher, side channel, partial curve]
COc1ccc(NC(=O)CSc2nnc(-c3cccnc3)o2)cc1	inconclusive: 7.94 µM [quencher, side channel, single point]
O=C(CCNS(=O)(=O)c1cccc2nonc12)NC1CCCCC1	inconclusive: 22.4 µM [quencher, side channel, partial curve]
C/C(=N\NC(=O)c1ccc(O)cc1)c1ccc2c(c1)Nc1ccccc1S2	inconclusive: 39.8 µM [quencher, side channel, single point]
O=C(Nc1ccc2c(c1)nc1n2CCN(C2CCCCC2)C1)NC1CCCCC1	inconclusive: 28.2 µM [quencher, single point]
CCOC(=O)C1CCN(C(=O)c2cc3c(=O)n4ccccc4nc3n2C)CC1	inconclusive: 25.1 µM [quencher, side channel, single point]
COc1cc(C)ccc1S(=O)(=O)n1nc(C)cc1C	inactive
CCn1c(=O)n(CC(=O)Nc2ccc(F)cc2)c(=O)c2ccccc21	inconclusive: 39.8 µM [fluorescent, side channel, single point]
CCCNC(=O)c1ccc(N2CCC3(CC2)CC(c2ccccc2)=NO3)c(NC(=O)c2ccco2)c1	inactive
Cc1ccc(Cl)cc1OCC(=O)NCCOC(=O)Nc1sc(=S)n(C)c1C	inconclusive: 0.0891 µM [fluorescent, side channel, full curve]
CCN1/C(=C/C(=O)c2ccco2)Sc2ccccc21	inconclusive: 15.8 µM [quencher, side channel, partial curve]
Cc1nc([N+](=O)[O-])c(Br)n1CC(=O)c1cccc([N+](=O)[O-])c1	inconclusive: 17.8 µM [quencher, side channel, partial curve]
